# Measured values reported in the supplement of paper PMC8728848.
# Some of the results follow.
# B1: Gal 8 (Mus musculus), Q9JL15 (protein)
# chain: MGGSHHHHHHGMASMLSLNNLQNIIYNPIIPYVGTITEQLKPGSLIVIRGHVPKDSERFQVDFQLGNSLKPRADVAFHFNPRFKRSSCIVCNTLTQEKWGWEEITYDMPFRKEKSFEIVFMVLKNKFQVAVNGRHVLLYAHRISPEQIDTVGIYGKVNIHSIGFRFSSASALPHTLGDLQSMETSALGLTQINRENIQKPGKLQLSLPFEARLNASMGPGRTVVIKGEVNTNARSFNVDLVAGKTRDIALHLNPRLNVKAFVRNSFLQDAWGEEERNITCFPFSSGMYFEMIIYCDVREFKVAINGVHSLEYKHRFKDLSSIDTLSVDGDIRLLDVRSW
# Key:
# Assay in all cases: glycan array binding signal (z-score within array); higher = stronger binding
# Conditions in all cases: glycan notation: IUPAC condensed, linker removed
# [1] = target: Fuc(a1-2)Gal(b1-4)[Fuc(a1-3)]GlcNAc
# Method in brief: (§1)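 The binding signal is a Z-score computed within each array. Data were drawn from 3228 arrays in the Consortium for Functional Glycomics database, restricted to those with a known protein sequence. Scores were averaged over arrays of the same protein sequence at different concentrations or buffers, and over linkers, and negative values can be taken as non-binding.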
# [2] = target: Fuc(a1-2)Gal(b1-4)[Fuc(a1-3)]GlcNAc(b1-2)Man(a1-3)[Fuc(a1-2)Gal(b1-4)[Fuc(a1-3)]GlcNAc(b1-2)Man(a1-6)]Man(b1-4)GlcNAc(b1-4)[Fuc(a1-6)]GlcNAc
# Method in brief: as §1
# [3] = target: Fuc(a1-2)Gal(b1-4)[Fuc(a1-3)]GlcNAc(b1-2)[Fuc(a1-2)Gal(b1-4)[Fuc(a1-3)]GlcNAc(b1-4)]Man(a1-3)[Fuc(a1-2)Gal(b1-4)[Fuc(a1-3)]GlcNAc(b1-2)Man(a1-6)]Man(b1-4)GlcNAc(b1-4)GlcNAc
# Method in brief: as §1
# [4] = target: Fuc(a1-2)Gal(b1-4)[Fuc(a1-3)]GlcNAc(b1-3)Gal(b1-4)[Fuc(a1-3)]GlcNAc
# Method in brief: as §1
# [5] = target: Fuc(a1-2)Gal(b1-4)[Fuc(a1-3)]GlcNAc(b1-3)Gal(b1-4)[Fuc(a1-3)]GlcNAc(b1-3)Gal(b1-4)[Fuc(a1-3)]GlcNAc
# Method in brief: as §1
# [6] = target: Fuc(a1-2)Gal(b1-4)[Fuc(a1-3)]GlcNAc(b1-3)GalNAc
# Method in brief: as §1
# [7] = target: Fuc(a1-2)Gal(b1-4)[Fuc(a1-3)]GlcNAc(b1-3)[Neu5Ac(a2-6)Gal(b1-4)GlcNAc(b1-6)]Gal(b1-4)Glc
# Method in brief: as §1
# [8] = target: Fuc(a1-2)Gal3S(b1-4)GlcNAc
# Method in brief: as §1
# [9] = target: Fuc(a1-2)Gal6S(b1-3)GlcNAc
# Method in brief: as §1
# [10] = target: Fuc(a1-2)Gal6S(b1-3)GlcNAc6S
# Method in brief: as §1
# Fuc(a1-2)Gal6S(b1-4)Glc = target: Fuc(a1-2)Gal6S(b1-4)Glc
# Method in brief: as §1
# [11] = target: Fuc(a1-2)Gal6S(b1-4)Glc6S
# Method in brief: as §1
# Fuc(a1-2)[Gal(a1-3)]Gal = target: Fuc(a1-2)[Gal(a1-3)]Gal
# Method in brief: as §1
# [12] = target: Fuc(a1-2)[Gal(a1-3)]Gal(b1-3)GalNAc
# Method in brief: as §1
# [13] = target: Fuc(a1-2)[Gal(a1-3)]Gal(b1-3)GalNAc(b1-3)Gal(a1-4)Gal(b1-4)Glc
# Method in brief: as §1
# [14] = target: Fuc(a1-2)[Gal(a1-3)]Gal(b1-3)GlcNAc
# Method in brief: as §1
# [15] = target: Fuc(a1-2)[Gal(a1-3)]Gal(b1-3)GlcNAc(b1-2)Man(a1-3)[Fuc(a1-2)[Gal(a1-3)]Gal(b1-3)GlcNAc(b1-2)Man(a1-6)]Man(b1-4)GlcNAc(b1-4)GlcNAc
# Method in brief: as §1
# [16] = target: Fuc(a1-2)[Gal(a1-3)]Gal(b1-3)GlcNAc(b1-2)Man(a1-3)[Fuc(a1-2)[Gal(a1-3)]Gal(b1-3)GlcNAc(b1-2)Man(a1-6)]Man(b1-4)GlcNAc(b1-4)[Fuc(a1-6)]GlcNAc
# Method in brief: as §1
# [17] = target: Fuc(a1-2)[Gal(a1-3)]Gal(b1-3)GlcNAc(b1-3)GalNAc
# Method in brief: as §1
# [18] = target: Fuc(a1-2)[Gal(a1-3)]Gal(b1-3)GlcNAc(b1-6)GalNAc
# Method in brief: as §1
# [19] = target: Fuc(a1-2)[Gal(a1-3)]Gal(b1-4)Glc
# Method in brief: as §1
# [20] = target: Fuc(a1-2)[Gal(a1-3)]Gal(b1-4)GlcNAc
# Method in brief: as §1
# [21] = target: Fuc(a1-2)[Gal(a1-3)]Gal(b1-4)GlcNAc(b1-2)Man
# Method in brief: as §1
# [22] = target: Fuc(a1-2)[Gal(a1-3)]Gal(b1-4)GlcNAc(b1-2)Man(a1-3)[Fuc(a1-2)[Gal(a1-3)]Gal(b1-4)GlcNAc(b1-2)Man(a1-6)]Man(b1-4)GlcNAc(b1-4)GlcNAc
# Method in brief: as §1
# [23] = target: Fuc(a1-2)[Gal(a1-3)]Gal(b1-4)GlcNAc(b1-2)Man(a1-3)[Fuc(a1-2)[Gal(a1-3)]Gal(b1-4)GlcNAc(b1-2)Man(a1-6)]Man(b1-4)GlcNAc(b1-4)[Fuc(a1-6)]GlcNAc
# Method in brief: as §1
# [24] = target: Fuc(a1-2)[Gal(a1-3)]Gal(b1-4)GlcNAc(b1-3)GalNAc
# Method in brief: as §1
# [25] = target: Fuc(a1-2)[Gal(a1-3)]Gal(b1-4)GlcNAc(b1-3)[Fuc(a1-2)[Gal(a1-3)]Gal(b1-4)GlcNAc(b1-6)]GalNAc
# Method in brief: as §1
# [26] = target: Fuc(a1-2)[Gal(a1-3)]Gal(b1-4)GlcNAc(b1-6)GalNAc
# Method in brief: as §1
# [27] = target: Fuc(a1-2)[Gal(a1-3)]Gal(b1-4)[Fuc(a1-3)]Glc
# Method in brief: as §1
# [28] = target: Fuc(a1-2)[Gal(a1-3)]Gal(b1-4)[Fuc(a1-3)]GlcNAc
# Method in brief: as §1
# [29] = target: Fuc(a1-2)[Gal(a1-3)]Gal(b1-4)[Fuc(a1-3)]GlcNAc(b1-3)GalNAc
# Method in brief: as §1
# [30] = target: Fuc(a1-2)[Gal(a1-4)]Gal(b1-4)GlcNAc
# Method in brief: as §1
# [31] = target: Fuc(a1-2)[GalNAc(a1-3)]Gal
# Method in brief: as §1
# [32] = target: Fuc(a1-2)[GalNAc(a1-3)]Gal(b1-3)GalNAc(a1-3)[Fuc(a1-2)]Gal(b1-4)GlcNAc
# Method in brief: as §1
# [33] = target: Fuc(a1-2)[GalNAc(a1-3)]Gal(b1-3)GalNAc(b1-3)Gal(a1-4)Gal(b1-4)Glc
# Method in brief: as §1
# [34] = target: Fuc(a1-2)[GalNAc(a1-3)]Gal(b1-3)GlcNAc
# Method in brief: as §1
# [35] = target: Fuc(a1-2)[GalNAc(a1-3)]Gal(b1-3)GlcNAc(b1-2)Man(a1-3)[Fuc(a1-2)[GalNAc(a1-3)]Gal(b1-3)GlcNAc(b1-2)Man(a1-6)]Man(b1-4)GlcNAc(b1-4)GlcNAc
# Method in brief: as §1
# [36] = target: Fuc(a1-2)[GalNAc(a1-3)]Gal(b1-3)GlcNAc(b1-2)Man(a1-3)[Fuc(a1-2)[GalNAc(a1-3)]Gal(b1-3)GlcNAc(b1-2)Man(a1-6)]Man(b1-4)GlcNAc(b1-4)[Fuc(a1-6)]GlcNAc
# Method in brief: as §1
binder,measurement,setting,value
B1,glycan array binding signal (z-score),[1],-0.54
same,glycan array binding signal (z-score),[2],-0.529
same,glycan array binding signal (z-score),[3],-0.525
same,glycan array binding signal (z-score),[4],-0.515
same,glycan array binding signal (z-score),[5],-0.464
same,glycan array binding signal (z-score),[6],-0.499
same,glycan array binding signal (z-score),[7],-0.445
same,glycan array binding signal (z-score),[8],-0.557
same,glycan array binding signal (z-score),[9],-0.543
same,glycan array binding signal (z-score),[10],-0.517
same,glycan array binding signal (z-score),Fuc(a1-2)Gal6S(b1-4)Glc,-0.534
same,glycan array binding signal (z-score),[11],-0.54
same,glycan array binding signal (z-score),Fuc(a1-2)[Gal(a1-3)]Gal,-0.527
same,glycan array binding signal (z-score),[12],0.224
same,glycan array binding signal (z-score),[13],0.456
same,glycan array binding signal (z-score),[14],3.88
same,glycan array binding signal (z-score),[15],3.71
same,glycan array binding signal (z-score),[16],1.22
same,glycan array binding signal (z-score),[17],1.49
same,glycan array binding signal (z-score),[18],1.5
same,glycan array binding signal (z-score),[19],2.26
same,glycan array binding signal (z-score),[20],3.76
same,glycan array binding signal (z-score),[21],2.84
same,glycan array binding signal (z-score),[22],2.75
same,glycan array binding signal (z-score),[23],3.64
same,glycan array binding signal (z-score),[24],2.57
same,glycan array binding signal (z-score),[25],2.19
same,glycan array binding signal (z-score),[26],-0.535
same,glycan array binding signal (z-score),[27],-0.504
same,glycan array binding signal (z-score),[28],-0.529
same,glycan array binding signal (z-score),[29],-0.512
same,glycan array binding signal (z-score),[30],-0.535
same,glycan array binding signal (z-score),[31],-0.528
same,glycan array binding signal (z-score),[32],1.71
same,glycan array binding signal (z-score),[33],-0.013
same,glycan array binding signal (z-score),[34],1
same,glycan array binding signal (z-score),[35],2
same,glycan array binding signal (z-score),[36],0.654
